Measurements from publication PMC9087378 (Immunity, 2021).

Biological target: Full length recombinant Plasmodium falciparum circumsporozoite protein (rPfCSP), biotinylated (Plasmodium falciparum NF54/3D7, biotin (BirA enzymatic reaction))
Assay: flow cytometry on cells

B1: iGL-CIS43 B cell receptor on peripheral B cells of H^iGL-CIS43κ^iGL-CIS43 knock-in mice (receptor)
VH: QVQLVQSGAEVKKPGASVKVSCKASGYTFTSYAMHWVRQAPGQRLEWMGWINAGNGNTKYSQKFQGRVTITRDTSASTAYMELSSLRSEDTAVYYCALLTVVTPDDAFDIWGQGTMVTVSS
VL: [about 100 residues omitted]FGGGTKVEIK
**Q.** Does B1 bind?
**A.** binds
